Test system: Molt-4 human acute lymphoblastic leukemia cell line
Assay: Growth inhibition assay, ATPlite 1 step, 72 hours
Assay type: cell-based
Conditions: Molt-4 cells; for % Cell Viability at 50 nM: 50 nM ADC; for IC50: ATPlite 1 step, read-out: Molt4 IC50
Experimental: The activities of these ADCs were tested in growth inhibition assays in the Molt-4 human acute lymphoblastic leukemia cell line. Briefly, 5000 Molt-4 cells per well in 96-well plates were treated with ADCs in serial dilution for 72 hours. The number of viable cells was determined by the ATPlite 1 step reagent (PerkinElmer 6016739) as instructed by the manufacturer. Data was analyzed using Graphpad Prism software and IC50 values were reported as the concentration of ADC to achieve 50% inhibition of cell proliferation (Table 27).

Row | Molecule | % Cell Viability at 50 nM [%] | IC50 [nM]
1 | CD98 (CL-huAb102)-SE (conjugate) heavy: EVQLVESGGGLVQPGGSLRLSCATSGFTFIDYYMSWVRQAPGKGLEWLGFIRNKANRYTTEYSASVKGRFTISRDNSKSILYLQMNSLKTEDTAVYYCTRDRPAWFVYWGQGTLVTVSSASTKGPSVFPLAPSSKSTSGGTAALGCLVKDYFPEPVTVSWNSGALTSGVHTFPAVLQSSGLYSLSSVVTVPSSSLGTQTYICNVNHKPSNTKVDKKV[skipping human IgG1 Fc with changes] light: DIVMTQTPLSLPVTPGEPASISCKSSQSLLYSSNQKNYLAWYLQKPGQSPQLLIYWASTRESGVPDRFSGSGSGTDFTLKISRVEAEDVGVYYCQQYYSYPYTFGGGTKVEIKRTVAAPSVFIFPPSDEQLKSGTASVVCLLNNFYPREAKVQWKVDNALQSGNSQESVTEQDSKDSTYSLSSTLTLSKADYEKHKVYACEVTHQGLSSPVTKSFNRGEC | 19.7 | 0.107
2 | CD98 (CL-huAb104)-SE (conjugate) heavy: EVQLVESGGGLVQPGGSLRLSCATSGFTFIDYYMSWVRQAPGKGLEWLGFIRNKAYGYTTEYSASVKGRFTISRDNSKSILYLQMNSLKTEDTAVYYCTRDRPAWFVYWGQGTLVTVSSASTKGPSVFPLAPSSKSTSGGTAALGCLVKDYFPEPVTVSWNSGALTSGVHTFPAVLQSSGLYSLSSVVTVPSSSLGTQTYICNVNHKPSNTKVDKKV[skipping human IgG1 Fc with changes] light: DIVMTQTPLSLPVTPGEPASISCKSSQSLLYSSNQKNYLAWYLQKPGQSPQLLIYWASTRESGVPDRFSGSGSGTDFTLKISRVEAEDVGVYYCQQYYSYPYTFGGGTKVEIKRTVAAPSVFIFPPSDEQLKSGTASVVCLLNNFYPREAKVQWKVDNALQSGNSQESVTEQDSKDSTYSLSSTLTLSKADYEKHKVYACEVTHQGLSSPVTKSFNRGEC | 17.1 | 0.149
3 | CD98 (CL-huAb110)-SE (conjugate) heavy: EVQLVQSGAEVKKPGASVKVSCKASGFTFSDYTMAWVRQAPGQGLEWVATIIYDARGTYYRDAVKGRFTITRDNSTSTLYLELSSLRSEDTAVYYCARQSDDTYYYWGYFDYWGQGTMVTVSSASTKGPSVFPLAPSSKSTSGGTAALGCLVKDYFPEPVTVSWNSGALTSGVHTFPAVLQSSGLYSLSSVVTVPSSSLGTQTYICNVNHKPSNTKVDKKV[skipping human IgG1 Fc with changes] light: DIVMTQTPLSLPVTPGEPASINCKSSQSLLFSGNQKNYLAWYLQKPGQSPQLLIYWASTRQSGVPDRFSGSGSGTDFTLKISRVEAEDVGIYYCQQYYSSPYTFGQGTKLEIKRTVAAPSVFIFPPSDEQLKSGTASVVCLLNNFYPREAKVQWKVDNALQSGNSQESVTEQDSKDSTYSLSSTLTLSKADYEKHKVYACEVTHQGLSSPVTKSFNRGEC | 5.7 | 0.502
4 | CD98 (CL-huAb102)-SR (conjugate) heavy: EVQLVESGGGLVQPGGSLRLSCATSGFTFIDYYMSWVRQAPGKGLEWLGFIRNKANRYTTEYSASVKGRFTISRDNSKSILYLQMNSLKTEDTAVYYCTRDRPAWFVYWGQGTLVTVSSASTKGPSVFPLAPSSKSTSGGTAALGCLVKDYFPEPVTVSWNSGALTSGVHTFPAVLQSSGLYSLSSVVTVPSSSLGTQTYICNVNHKPSNTKVDKKV[skipping human IgG1 Fc with changes] light: DIVMTQTPLSLPVTPGEPASISCKSSQSLLYSSNQKNYLAWYLQKPGQSPQLLIYWASTRESGVPDRFSGSGSGTDFTLKISRVEAEDVGVYYCQQYYSYPYTFGGGTKVEIKRTVAAPSVFIFPPSDEQLKSGTASVVCLLNNFYPREAKVQWKVDNALQSGNSQESVTEQDSKDSTYSLSSTLTLSKADYEKHKVYACEVTHQGLSSPVTKSFNRGEC | 12.7 | 0.03

— US20200002432A1, “ANTI-CD98 ANTIBODIES AND ANTIBODY DRUG CONJUGATES” (AbbVie Inc., priority 2016, published 2020)
